Measurements published in PMC4336329 (PLoS ONE, 2015).
About 2,200 (0.71%) of roughly 310,000 compounds showed an effect of 50% or more. The effect is printed as a negative number. This is one part of the list.

Target: human ether-à-go-go-related gene (hERG) potassium channel (human, UniProt Q12809)
Experiment: primary screen, population patch clamp on CHO cells stably expressing hERG

Sequence of human ether-à-go-go-related gene (hERG) potassium channel (Q12809 whole entry, looked up): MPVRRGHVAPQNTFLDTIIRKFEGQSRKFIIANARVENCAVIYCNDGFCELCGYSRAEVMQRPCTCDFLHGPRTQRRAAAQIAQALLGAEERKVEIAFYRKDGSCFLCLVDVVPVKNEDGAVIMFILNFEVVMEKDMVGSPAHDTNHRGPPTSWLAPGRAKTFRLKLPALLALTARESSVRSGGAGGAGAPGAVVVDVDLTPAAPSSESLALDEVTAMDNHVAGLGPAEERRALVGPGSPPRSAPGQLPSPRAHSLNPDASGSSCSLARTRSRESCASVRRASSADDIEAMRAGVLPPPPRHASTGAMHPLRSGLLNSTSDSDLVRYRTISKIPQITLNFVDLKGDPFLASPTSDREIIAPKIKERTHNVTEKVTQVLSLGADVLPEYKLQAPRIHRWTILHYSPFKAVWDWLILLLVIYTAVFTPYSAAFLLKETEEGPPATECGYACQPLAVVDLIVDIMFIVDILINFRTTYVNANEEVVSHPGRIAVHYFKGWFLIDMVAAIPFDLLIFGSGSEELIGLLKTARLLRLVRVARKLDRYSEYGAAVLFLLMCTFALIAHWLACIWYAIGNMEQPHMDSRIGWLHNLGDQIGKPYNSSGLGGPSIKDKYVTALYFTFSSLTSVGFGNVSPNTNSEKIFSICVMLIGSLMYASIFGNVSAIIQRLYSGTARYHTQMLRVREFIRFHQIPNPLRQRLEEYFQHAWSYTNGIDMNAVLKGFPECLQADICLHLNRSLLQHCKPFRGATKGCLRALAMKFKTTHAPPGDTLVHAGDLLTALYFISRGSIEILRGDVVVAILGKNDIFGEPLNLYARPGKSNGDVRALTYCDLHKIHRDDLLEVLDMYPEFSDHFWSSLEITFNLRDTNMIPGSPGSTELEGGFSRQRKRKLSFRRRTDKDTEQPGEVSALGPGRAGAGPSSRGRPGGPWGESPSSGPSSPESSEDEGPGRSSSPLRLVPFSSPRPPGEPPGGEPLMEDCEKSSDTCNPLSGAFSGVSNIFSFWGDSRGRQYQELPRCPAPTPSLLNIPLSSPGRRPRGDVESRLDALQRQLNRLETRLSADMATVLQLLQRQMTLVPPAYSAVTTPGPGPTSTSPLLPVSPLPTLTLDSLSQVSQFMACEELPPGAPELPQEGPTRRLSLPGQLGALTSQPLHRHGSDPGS

In order of falling “hERG current change (%, negative = inhibition) at 1uM” value:
1. COC(=O)[C@H](CC(C)C)NC(=O)NC1CCCc2ccccc21 (stereo partly shown)  22.1%
2. COc1ccc(C(=O)NC2CCCc3ccccc32)cc1Br (stereo not shown)  17%
3. Cc1cccc(NC(=O)COC(=O)Cc2cccs2)c1C  16.9%
4. O=C(NCc1ccccn1)c1cc(S(=O)(=O)N2CCCCCC2)ccc1Cl  16.6%
5. CC(C)(C)c1ccc(C(=O)NC(=S)N2CCCC2)cc1  16.4%
6. COC(=O)c1ccc2c(c1)C(=O)/C(=C/c1ccc(O)cc1)O2  16.3%
7. C#CCNC(=O)C1=C[C@@H](C2CC2)C[C@@H](OCc2ccc(CO)cc2)O1  16%
8. Cc1ccc(NC(=O)CCC(=O)NNC(=O)CCc2ccccc2)c(C)c1  15.8%
9. CNC(=S)N=Nc1c(O)[nH]c2ccc(C(C)C)cc12  15.5%
10. O=C(N/N=C/c1ccccn1)c1cc(-c2ccccc2Cl)n[nH]1  15.5%
11. CCOC(=O)COn1c(=O)c(=O)n(OC)c2ccccc21  15.2%
12. C=CCc1cccc(CNn2cnnc2)c1O  15.2%
13. Cc1ccc(NC(=O)COc2ccc(CCO)cc2-n2nc3ccccc3n2)cc1C  14.7%
14. CC(C)Cn1c(SCC(=O)Nc2ccc3[nH]c(=O)[nH]c3c2)nc2ccccc2c1=O  14.2%
15. C=CCNC(=O)c1onc(CSc2ccc(Cl)cc2)c1C(=O)O  13.6%
16. CSc1nnc2n(-c3ccc(C)cc3)c(=O)c3c4c(sc3n12)COC(C(C)C)C4 (stereo not shown)  13.3%
17. N#Cc1c(NC(=O)C(=O)NCCCN2CCOCC2)sc2c1CCC2  12.8%
18. Cc1cc(C(=O)N/N=C/c2ccncc2)c2ccccc2n1  12.4%
19. O=C(Nc1ccc(Cl)cc1)OCc1cc(-c2ccccc2Cl)on1  11.7%
20. COC(=O)C1(C)Cc2cc(OC(C)=O)c(OC(C)=O)cc2N1 (stereo not shown)  11.7%
21. Cc1sc(NC(=O)C2CC(Cl)=CCC2C(=O)O)c(C#N)c1C (stereo not shown)  11.3%
22. Cc1cccc(N2CCN(C(=O)CN3C(=O)NC(C)(C)C3=O)CC2)c1C  11.3%
23. COc1ccc(OC)c(N=CC2=C(O)CC(C)(C)CC2=O)c1  11.2%
24. CC(C)c1ccc(/C=C/c2[nH]c(=O)[nH]c(=O)c2[N+](=O)[O-])cc1  10.8%
25. CCc1c(C)c2ccc(OC3CCCCC3=O)cc2oc1=O (stereo not shown)  10.8%
26. C/C(=N\Nc1cccc2cccnc12)c1ccccn1  10.3%
27. O=C(CNS(=O)(=O)/C=C/c1ccccc1)OC1CCOC1=O (stereo not shown)  10.2%
28. FC(F)(F)c1nnc2c(Sc3ccccc3)nc3ccc(Cl)cc3n12  10%
29. O=C(COC(=O)c1cc(S(=O)(=O)NCc2ccccc2)ccc1O)NCc1ccccc1  9.94%
30. CCCCOc1ccccc1Cn1c(=O)oc2ccccc21  9.79%
31. O=C(COc1ccc2cc(-c3ccccc3)c(=O)oc2c1)NCC1CCC(C(=O)O)CC1 (stereo not shown)  9.54%
32. C[C@H](NC(=O)[C@@H]1CSC2c3ccccc3C(=O)N21)C(=O)NCCc1ccccc1 (stereo partly shown)  9.4%
33. O=C(COC(=O)c1cc(Cl)cc(Cl)c1)NCCN1C(=O)CSC1=O  9.27%
34. COc1ccc(NC(=O)c2ccccc2OCc2ccc(F)cc2)c(OC)c1  9.05%
35. COc1ccc(C(c2c(C)[nH][nH]c2=O)c2c(C)[nH][nH]c2=O)cc1Br  8.93%
36. CC(=O)c1cccc(NC(=S)NCc2ccco2)c1  8.86%
37. Cc1ccc2cc3c(nc2c1)OCC3  8.8%
38. CCSc1nnc2nc(C)cc(C)n12  8.24%
39. Cc1cc(=O)oc2cc(NC(=S)NNC(=O)c3c(Cl)cnn3C)ccc12  8.01%
40. Cc1cccc(C)c1NC(=O)C1=C(O)c2sccc2N(C)S1(=O)=O  7.94%
41. Cc1cccc(S(=O)(=O)NCCc2cn3ccccc3n2)c1  7.71%
42. Cc1ccc(C(=O)O)cc1NC(=S)NC(=O)c1ccc(-c2ccc(Cl)cc2)o1  7.61%
43. Oc1cccc(C(=S)N2CCCCC2)c1  7.6%
44. COc1ccc(/C(O)=C2/C(=O)C(=O)N(c3ncccn3)C2c2ccc(C(C)(C)C)cc2)cc1 (stereo not shown)  7.02%
45. Cc1ccc(CNC(=O)c2cc3c(-c4ccc(Cl)cc4)nn(C)c3s2)o1  6.73%
46. Cn1nnnc1SCC(=O)C(C)(C)C  6.65%
47. CN(C)C(=N)c1n[nH]nc1SCc1ccc(Cl)c(Cl)c1.Cl  6.32%
48. CC(C)C(OC(=O)Cn1nnc2ccccc21)C(=O)NC1CCCC1 (stereo not shown)  6.29%
49. CCOC(=O)C1CCN(CCC(=O)Nc2ccc(F)cc2)CC1  6.25%
50. O=C(Cc1coc(-c2ccc(F)cc2)n1)Nc1ccccc1  5.7%
51. Cc1ccc(-c2nnn(CCC(=O)NC3CCCC3)n2)cc1  4.87%
52. COc1cc(C)c(CN2CCCCC2CO)cc1C (stereo not shown)  4.82%
53. O=C(O)c1ccc2c(c1)C(c1ccccc1)OC2=O (stereo not shown)  4.36%
54. COc1ccccc1CNC(=O)COC(=O)C12CC3CC(CC(O)(C3)C1)C2  3.32%
55. Cc1ccc(Oc2nsnc2N2CCOCC2)cc1  3.27%
56. O=C(CCc1nc2ccccc2c(=O)[nH]1)Nc1ccc(F)cc1  3.15%
57. O=S(=O)(c1ccc2ccccc2c1)N1CCN(C(=S)Nc2ccccc2F)CC1  2.6%
58. CCn1c(SCC(=O)Nc2ccccc2C(=O)OC)nnc1-c1ccoc1C  2.55%
59. Oc1ccc(/C=N/NP(=S)(c2ccccc2)c2ccccc2)cc1O  2.29%
60. CC(=O)N1CC(C)Sc2ccc(S(=O)(=O)NCc3ccc(Cl)cc3)cc21 (stereo not shown)  1.91%
61. Cc1oc(-c2ccc3c(c2)OCCO3)cc1C(=O)NC(Cc1ccccc1)C(=O)O (stereo not shown)  1.88%
62. Cc1cc(C)n(-c2ccc(Cl)c(C(=O)Nc3ccc(OC(F)(F)F)cc3)n2)n1  1.74%
63. C=CCNC(=S)N/N=C(\C)c1cccc(OC)c1  1.34%
64. Cc1ccc(SCCC(=O)Nc2ccccc2C(=O)N2CCOCC2)cc1  0.852%
65. O=S(Cc1ccc(Cl)cc1)CC(O)COCc1ccc(Cl)cc1 (stereo not shown)  0.524%
66. Cc1ccc2c(CSc3nnc(N)s3)cc(=O)oc2c1  0.379%
67. Cc1oc(C(C)(C)C)cc1C(=O)Nc1cccc(/C=C/C(=O)O)c1  -0.0917%
68. N#CCCNC(=O)CCN1CCCCC1  -0.18%
69. CN(CC(=O)NCc1cccnc1)S(=O)(=O)c1cc(Cl)ccc1Cl  -0.369%
70. Cc1ccc(Nc2nc(N)nc(CSC(=S)N3CCOCC3)n2)cc1  -0.757%
71. O=C1Nc2ccccc2C1C(C[N+](=O)[O-])c1ccccc1 (stereo not shown)  -1.46%
72. CCC(C)[C@H](NC(=O)NC1CCN(Cc2ccccc2)CC1)C(=O)OC (stereo partly shown)  -1.71%
73. O=C(CSc1ncn[nH]1)N1N=C(c2ccc(Cl)cc2)CC1c1ccco1 (stereo not shown)  -2.39%
74. O=C(CSc1nc2[nH]c(=O)cc(O)c2s1)Nc1ccc(Cl)c(C(F)(F)F)c1  -2.4%
75. O=S(=O)(c1ccc2c(c1)CCCN2)N1CCCC2CCCCC21 (stereo not shown)  -2.88%
76. CN1CCCN(C(=O)c2cc(=O)[nH]c3ccccc23)c2nc3ccccc3nc21  -3.46%
77. COc1ccc(C)cc1NC(=O)CSc1nnc(COc2ccc(C)cc2)n1Cc1ccco1  -3.47%
78. CCN(CC)c1ccc(N)cc1S(=O)(=O)Nc1ccccc1OC  -4.18%
79. Cc1ccc2c(c1)c1c(n2CC(O)Cn2ccnc2C)C(=O)CCC1 (stereo not shown)  -5.14%
80. COc1ccc2nc3oc(C(=O)NCc4cccs4)cc3cc2c1  -5.34%
81. CN(C)CCCNC(=O)c1cc(C(=O)Cc2ccc(Cl)cc2)c[nH]1  -5.69%
82. CS(=O)(=O)N1CCC(C(=O)Nc2ccc(Oc3ccccc3)cc2)CC1  -8.7%
83. CCCCCc1ccc(S(=O)(=O)NCCc2ccncc2)cc1  -10.1%
84. c1ccc(OCCSc2nnnn2-c2ccccc2)cc1  -13.4%
85. O=C(NCc1ccc2c(c1)OCO2)c1ccc(N2C(=O)C3CCCCC3C2=O)cc1 (stereo not shown)  -13.9%
86. Br.N=c1n(CCN2CCCCC2)c2ccccc2n1CC(=O)c1ccc(Cl)c(Cl)c1  -14.7%
87. Cc1ccc(-n2cnnn2)cc1Cl  -16.6%
88. COc1ccc(CNC(=O)C(C)Sc2nc3ccccc3c(=O)n2CC2CCCO2)cc1 (stereo not shown)  -17.5%
89. CCN1CCN(C(=O)C2CCN(Cc3nc(-c4cccc(Cl)c4)oc3C)CC2)CC1  -21%
90. CCN(CC)CCNC(=O)c1[nH]c2ccc(OCc3ccccc3)cc2c1C  -61.3%
91. O=C(Nc1cc(C(=O)N2CCCC2)ccc1N1CCCC1)c1ccccc1F  -82.8%
